Over roughly 81,000 sequences, “one-hybrid fitness for binding NBS DNA” has its median near -0.1; the highest 2% begin near 0.36. Some of the results follow. A value given as a limit tells only on which side of the number the result lay.

This is an account of results in a collection of fitness landscapes (doi:10.1016/j.celrep.2020.107928).

The chains are these.
B1: Caulobacter ParB omega fusion; a variant is named by its letters at X, in order, B8GW30 (parent)
chain: MESVVVGEPGMSEGRRGLGRGLSALLGEVDAAPAQAPGEQLGGSREAPIEILQRNPDQPRRTFREEDLEDLSNSIREKGVLQPILVRPSPDTAGEYQIVAGERAWRAAQRAGLKTVPIMVRELDDLAVLEIGIIENVQRADLNVLEEALSYKVLMEKFERTQENIAQTIGKSXSHVANXMRLLXLPDEVQSYLVSGELTAXHARAIAAAADPVALAKQIIEGGLSVRETEALARKAPNLSAGKSKGGRPPRVKDTDTQALESDLSSVLGLDVSIDHRGSTGTLTITYATLEQLDDLCNRLTRGI

The variants in the test derive from B1. Description: one-hybrid fitness for binding NBS DNA (the Noc-binding site; scaled: cognate 1, non-cognate 0); higher = stronger binding. The settings on record: with NBS DNA site. Summed up:
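The reporter was HIS3, with the binding site 19 bp from the promoter, in E. coli USO used for bacterial one-hybrid selection of Caulobacter ParB libraries with four specificity codons randomised. Growth was on M9 lacking histidine, with 0.1 mM IPTG and 5 mM 3-AT, for 48 hours at 37°C. Illumina sequencing covered plasmids before and after selection; three replicate libraries were pooled and variants with under 10 reads dropped. A fitness score is the log change in variant-to-wild-type read ratio, rescaled to the cognate and non-cognate references.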
NIHY: the “one-hybrid fitness for binding NBS DNA” value was at most 0.2. For LATL, the “one-hybrid fitness for binding NBS DNA” value was at most 0.2.

In the case of VWPM, the “one-hybrid fitness for binding NBS DNA” value is at most 0.2. As for QLAA, the “one-hybrid fitness for binding NBS DNA” value is at most 0.2. Turning to YWQT, the “one-hybrid fitness for binding NBS DNA” value is at most 0.2. As for QFPN, the “one-hybrid fitness for binding NBS DNA” value is at most 0.2. For QQAI, the “one-hybrid fitness for binding NBS DNA” value was at most 0.2.

As for LQAT, the “one-hybrid fitness for binding NBS DNA” value is at most 0.2.

Regarding IGLK, the “one-hybrid fitness for binding NBS DNA” value is at most 0.2. The figure for RHFM is at most 0.2; for RCTY it is at most 0.2. As for QSCF, the figure is at most 0.2.

Take SRRI: the “one-hybrid fitness for binding NBS DNA” value was at most 0.2.

For TAVH, the “one-hybrid fitness for binding NBS DNA” value was at most 0.2.

Turning to HSQS, the “one-hybrid fitness for binding NBS DNA” value was at most 0.2. The figure for NSYH is at most 0.2; for NKGS it is at most 0.2. For the variant HTCC, the “one-hybrid fitness for binding NBS DNA” value was at most 0.2. As to QCVV, the “one-hybrid fitness for binding NBS DNA” value was at most 0.2.

For the variant YETR, the “one-hybrid fitness for binding NBS DNA” value was at most 0.2. For the variant RVCL, the “one-hybrid fitness for binding NBS DNA” value is at most 0.2.

RVDN: the “one-hybrid fitness for binding NBS DNA” value is at most 0.2. The figure for RCNY is 0.221; for ANKS it is at most 0.2.

Consider ILSF, for which the “one-hybrid fitness for binding NBS DNA” value is at most 0.2.

With LLLE, the “one-hybrid fitness for binding NBS DNA” value was at most 0.2.

Consider LDHI, for which the “one-hybrid fitness for binding NBS DNA” value was at most 0.2.

RQSC: the “one-hybrid fitness for binding NBS DNA” value is at most 0.2. The figure for CCCS is at most 0.2; for PSYD it is at most 0.2. The figure for SGIH is at most 0.2; for QQNG it is at most 0.2. As for RYKL, the figure is at most 0.2; as for RIIR, at most 0.2; as for MNRV, at most 0.2. For AHWD, the “one-hybrid fitness for binding NBS DNA” value was at most 0.2.

Take NRYN: the “one-hybrid fitness for binding NBS DNA” value was at most 0.2.

Regarding GDWR, the “one-hybrid fitness for binding NBS DNA” value was at most 0.2. As for TISV, the figure is at most 0.2; as for ADNH, at most 0.2; as for IYVS, at most 0.2.

ETQI: the “one-hybrid fitness for binding NBS DNA” value is at most 0.2.

CTPR: the “one-hybrid fitness for binding NBS DNA” value was at most 0.2.

With IWMS, the “one-hybrid fitness for binding NBS DNA” value was at most 0.2. Consider CPPY, for which the “one-hybrid fitness for binding NBS DNA” value was at most 0.2.

As to RRII, the “one-hybrid fitness for binding NBS DNA” value is at most 0.2. As for CVTW, the figure is at most 0.2; as for QSTD, at most 0.2. As for FTYG, the figure is at most 0.2; as for WLAY, at most 0.2; as for GTED, at most 0.2. As to PQFR, the “one-hybrid fitness for binding NBS DNA” value was at most 0.2. For VREI, the “one-hybrid fitness for binding NBS DNA” value is at most 0.2. For the variant WGKR, the “one-hybrid fitness for binding NBS DNA” value is at most 0.2. With PAGC, the “one-hybrid fitness for binding NBS DNA” value is at most 0.2. Regarding FLDR, the “one-hybrid fitness for binding NBS DNA” value is at most 0.2. The figure for YMCG is at most 0.2; for SLKN it is at most 0.2; for LVTL it is at most 0.2. As for QQAE, the figure is at most 0.2; as for AWAT, at most 0.2.

Consider SLRC, for which the “one-hybrid fitness for binding NBS DNA” value was at most 0.2.

Consider CCVV, for which the “one-hybrid fitness for binding NBS DNA” value is at most 0.2. For the variant CVDK, the “one-hybrid fitness for binding NBS DNA” value was at most 0.2. Regarding APLS, the “one-hybrid fitness for binding NBS DNA” value is at most 0.2. As to DLRV, the “one-hybrid fitness for binding NBS DNA” value is at most 0.2.

In the case of WRSS, the “one-hybrid fitness for binding NBS DNA” value is at most 0.2.

As for SNGG, the “one-hybrid fitness for binding NBS DNA” value is at most 0.2.

Take NEKN: the “one-hybrid fitness for binding NBS DNA” value was at most 0.2. Consider KRRL, for which the “one-hybrid fitness for binding NBS DNA” value was at most 0.2. As for TRYL, the figure is at most 0.2; as for LQPM, at most 0.2; as for FAAG, at most 0.2. For the variant QLQT, the “one-hybrid fitness for binding NBS DNA” value was determined as 0.37.

VDLA: the “one-hybrid fitness for binding NBS DNA” value was at most 0.2.

Regarding QPHG, the “one-hybrid fitness for binding NBS DNA” value was at most 0.2. As for RITQ, the figure is at most 0.2. As for VGSI, the figure is at most 0.2. As for WTLC, the figure is at most 0.2; as for RIPH, at most 0.2.

On to LCYC, for which the “one-hybrid fitness for binding NBS DNA” value is at most 0.2. The figure for YKPL is at most 0.2; for LVAW it is at most 0.2; for PPKC it is at most 0.2. In the case of CEPV, the “one-hybrid fitness for binding NBS DNA” value was at most 0.2. For the variant SAYD, the “one-hybrid fitness for binding NBS DNA” value is at most 0.2.

With SGYV, the “one-hybrid fitness for binding NBS DNA” value was at most 0.2. Take RTLY: the “one-hybrid fitness for binding NBS DNA” value is at most 0.2. As for PYTD, the figure is at most 0.2; as for RVPG, at most 0.2. For RKNW, the “one-hybrid fitness for binding NBS DNA” value was at most 0.2.

As to VMNS, the “one-hybrid fitness for binding NBS DNA” value is at most 0.2. The figure for NPIC is at most 0.2. As for ARAM, the figure is at most 0.2; as for RMHP, at most 0.2. Take LVWL: the “one-hybrid fitness for binding NBS DNA” value was at most 0.2. For DPAF, the “one-hybrid fitness for binding NBS DNA” value is at most 0.2. As for DTSI, the figure is at most 0.2. The figure for HCLM is at most 0.2. For NQES, the “one-hybrid fitness for binding NBS DNA” value was at most 0.2. The figure for ESCT is at most 0.2. Regarding WFCG, the “one-hybrid fitness for binding NBS DNA” value was at most 0.2.

YILR: the “one-hybrid fitness for binding NBS DNA” value is at most 0.2. As to LFGC, the “one-hybrid fitness for binding NBS DNA” value is at most 0.2.

Turning to WGNT, the “one-hybrid fitness for binding NBS DNA” value was at most 0.2. The figure for QADD is at most 0.2. QCVW: the “one-hybrid fitness for binding NBS DNA” value was at most 0.2. With VEQT, the “one-hybrid fitness for binding NBS DNA” value is at most 0.2. For the variant PKVT, the “one-hybrid fitness for binding NBS DNA” value was at most 0.2. As for THKY, the “one-hybrid fitness for binding NBS DNA” value was at most 0.2. In the case of KAQD, the “one-hybrid fitness for binding NBS DNA” value is at most 0.2.

With TMMR, the “one-hybrid fitness for binding NBS DNA” value is at most 0.2. As for TWAG, the figure is at most 0.2; as for VQHA, at most 0.2. As to SESE, the “one-hybrid fitness for binding NBS DNA” value is at most 0.2. The figure for VAAT is at most 0.2; for SMKR it is at most 0.2.

On to SAMV, for which the “one-hybrid fitness for binding NBS DNA” value is at most 0.2.

SRYC: the “one-hybrid fitness for binding NBS DNA” value was at most 0.2.

As for LGSK, the “one-hybrid fitness for binding NBS DNA” value is at most 0.2. In the case of RLMG, the “one-hybrid fitness for binding NBS DNA” value is at most 0.2. As for EPTL, the figure is at most 0.2. Consider RISM, for which the “one-hybrid fitness for binding NBS DNA” value is at most 0.2. The figure for HHLS is at most 0.2; for RTLH it is at most 0.2. Regarding AQKS, the “one-hybrid fitness for binding NBS DNA” value is at most 0.2. Turning to RFLC, the “one-hybrid fitness for binding NBS DNA” value is at most 0.2. Regarding QTLP, the “one-hybrid fitness for binding NBS DNA” value was at most 0.2. In the case of SHCY, the “one-hybrid fitness for binding NBS DNA” value is at most 0.2. As for LPAD, the figure is at most 0.2; as for RFTM, at most 0.2. As to RENK, the “one-hybrid fitness for binding NBS DNA” value was at most 0.2. On to ARKI, for which the “one-hybrid fitness for binding NBS DNA” value was at most 0.2. As for RKSD, the figure is at most 0.2; as for YPMS, at most 0.2. As for QWPS, the figure is at most 0.2.

Turning to VPPT, the “one-hybrid fitness for binding NBS DNA” value is at most 0.2. The figure for GAMS is at most 0.2. The figure for DNLT is at most 0.2; for TQCH it is at most 0.2; for YRMR it is at most 0.2. Take VIIV: the “one-hybrid fitness for binding NBS DNA” value was at most 0.2. With AENC, the “one-hybrid fitness for binding NBS DNA” value was at most 0.2. The figure for TCPS is at most 0.2. For ELTM, the “one-hybrid fitness for binding NBS DNA” value was at most 0.2. With SMHV, the “one-hybrid fitness for binding NBS DNA” value was at most 0.2. As to SKCF, the “one-hybrid fitness for binding NBS DNA” value is at most 0.2.

As for CYSV, the “one-hybrid fitness for binding NBS DNA” value was at most 0.2. For GTSR, the “one-hybrid fitness for binding NBS DNA” value was at most 0.2.

Consider TTYN, for which the “one-hybrid fitness for binding NBS DNA” value was at most 0.2. Regarding HCLE, the “one-hybrid fitness for binding NBS DNA” value is at most 0.2. For TACM, the “one-hybrid fitness for binding NBS DNA” value was at most 0.2. The figure for SFPN is at most 0.2.
